Data published in the supplement of paper PMC4967469.
The IC50 comes from the fitted curve, where viability falls to half of the control; fits outside the tested doses are given as limits. AUC is the area under the same curve over the 256-fold range up to the top dose, as a fraction; it is 1 without any effect and falls as sensitivity rises. For some assays here: The top dose, if marked as inferred, was derived from the fitted curves, not read from the paper. For some assays here: Drugs with an entry number were screened twice under separate entries, and the two screens often disagree.

Legend:
Assay in all cases: Viability of human cancer cell lines after 72 h of drug (GDSC screen)
[1] = compound: NCC(=O)Nc1ccc(-n2nc(C(F)(F)F)cc2-c2ccc3c(ccc4ccccc43)c2)cc1 [OSU-03012]; conditions: top dose 16 µM; top dose inferred
Description: (§1)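 Human cancer cell lines in 384-well plates, medium with 10% serum, drug for 72 h over a 256-fold dose range (nine 2-fold or five 4-fold steps up to the top dose). Adherent lines were fixed and stained with the nucleic acid dye Syto60, suspension lines read with resazurin; signal relative to control wells, capped at 0 and 100%. One two-parameter sigmoid per drug and line, fitted in a mixed model over all curves with the slope shared within a line.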

[2] = compound: O=c1[nH]cc(F)c(=O)[nH]1 [5-Fluorouracil]; conditions: top dose 32 µM; top dose inferred
Description: as §1

[3] = compound: OC[C@H](Cc1ccccc1)Nc1nc(Oc2ccc3c(c2)CCC3)nc2c1ncn2Cc1ccc(-c2ccccc2)cc1 [QS11]; conditions: top dose 10.24 µM
Description: as §1

[4] = compound: COc1cc(F)c(F)c(Nc2ccc(I)cc2F)c1NS(=O)(=O)C1(C[C@H](O)CO)CC1 [RDEA119]; conditions: top dose 5 µM, top dose inferred
Description: as §1

[5] = compound: C#Cc1cccc(Nc2ncnc3cc(OC)c(OCCCCCCC(=O)NO)cc23)c1 [CUDC-101]; conditions: top dose 5.12 µM; top dose inferred
Description: as §1

[6] = compound: CC(C)(C)c1cc(NC(=O)Nc2ccc(-c3cn4c(n3)sc3cc(OCCN5CCOCC5)ccc34)cc2)no1 [AC220]; conditions: top dose 1.024 µM; top dose inferred
Description: as §1

[7] = compound: Fc1cc(-c2ccnc(Nc3ccc(-n4cnc(N5CCOCC5)n4)cc3)n2)cc(N2CCOCC2)c1 [JNK-9L]; conditions: top dose 5.12 µM; top dose inferred
Description: as §1

Cell Line	AUC [1]	IC50 [1] [nM]	AUC [2]	IC50 [2] [nM]	AUC [3]	IC50 [3] [nM]	AUC ([4]; screen: GDSC drug entry 1014)	IC50 ([4]; screen: GDSC drug entry 1014) [nM]	AUC ([4]; screen: GDSC drug entry 1526)	IC50 ([4]; screen: GDSC drug entry 1526) [nM]	AUC [5]	IC50 [5] [nM]	AUC [6]	IC50 [6] [nM]	AUC [7]	IC50 [7] [nM]
5637 (bladder, adherent)	0.508	1050	0.864	23800	0.771	3550	0.903	> 5000	0.949	> 5000	0.199	46.2	0.985	> 1020	0.845	3190
8305C (thyroid, adherent)	0.636	2670	0.982	> 32000	0.674	2290	0.632	813	0.657	982	0.982	> 5120	0.976	> 1020	0.559	486
23132-87 (stomach, adherent)	0.797	7860	0.606	3960	0.776	4220	0.805	2630	0.859	4410	0.453	237	0.982	> 1020	0.589	566
A3-KAW (B-cell lymphoma, suspension)	0.666	2610	0.098	150	0.877	6810	0.987	> 5000	0.687	922	0.373	155	0.976	> 1020	0.5	319
A4-Fuk (B-cell lymphoma, suspension)	0.687	3430	0.486	1820	0.929	> 10200	0.66	890	0.876	> 5000	0.824	3210	0.985	> 1020	0.562	476
A101D (melanoma, adherent)	0.646	2790	0.925	> 32000	0.861	> 10200	0.564	488	0.602	636	0.651	925	0.981	> 1020	0.44	212
A172 (glioma, adherent)	0.7	3560	0.876	29700	0.837	6520	–	–	0.86	3940	0.593	570	0.988	> 1020	0.496	312
A204 (rhabdomyosarcoma, adherent)	0.747	6420	0.786	18300	0.939	> 10200	–	–	0.869	> 5000	0.603	669	0.807	723	0.41	169
A253 (head and neck, adherent)	0.627	2210	0.949	> 32000	0.88	10200	0.81	2540	0.886	> 5000	0.759	1750	0.988	> 1020	0.485	291
